This is an account of results in a collection of fitness landscapes (doi:10.1016/j.celrep.2020.107928).

Whole data set: some 81,000 sequences, median “one-hybrid fitness for binding NBS DNA” near -0.1, cut for the highest 2% near 0.36. Some of the results follow. Where only a bound is given, the exact number is not on record here.

B1: Caulobacter ParB omega fusion; a variant is named by its letters at X, in order, B8GW30 (parent)
chain: MESVVVGEPGMSEGRRGLGRGLSALLGEVDAAPAQAPGEQLGGSREAPIEILQRNPDQPRRTFREEDLEDLSNSIREKGVLQPILVRPSPDTAGEYQIVAGERAWRAAQRAGLKTVPIMVRELDDLAVLEIGIIENVQRADLNVLEEALSYKVLMEKFERTQENIAQTIGKSXSHVANXMRLLXLPDEVQSYLVSGELTAXHARAIAAAADPVALAKQIIEGGLSVRETEALARKAPNLSAGKSKGGRPPRVKDTDTQALESDLSSVLGLDVSIDHRGSTGTLTITYATLEQLDDLCNRLTRGI

In this assay the parent is B1. Description: one-hybrid fitness for binding NBS DNA (the Noc-binding site; scaled: cognate 1, non-cognate 0); higher = stronger binding. Conditions: with NBS DNA site. Put shortly:
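In E. coli USO, a HIS3 reporter with its site placed 19 bp from the promoter was used to select Caulobacter ParB variants randomised at four specificity codons. Growth lasted 48 hours at 37°C on histidine-free M9 containing 0.1 mM IPTG and 5 mM 3-AT. Fitness was taken as the log change in variant-to-wild-type read ratio from Illumina sequencing of pre- and post-selection plasmids, rescaled between the non-cognate and cognate sites.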
On to DMGC, for which the “one-hybrid fitness for binding NBS DNA” value is at most 0.2. The figure for YRNF is at most 0.2; for ALDW it is at most 0.2; for KAWV it is at most 0.2. Then APLC, with at most 0.2; and RQRH, with 0.341.

In the case of YSLS, the “one-hybrid fitness for binding NBS DNA” value was at most 0.2. The figure for MKMR is at most 0.2; for QNPG it is at most 0.2; for SQVD it is at most 0.2.

For VHRS, the “one-hybrid fitness for binding NBS DNA” value is at most 0.2. Then RNLP, with at most 0.2; and GFTC, with at most 0.2; and RGWV, with at most 0.2. Then VQYT, with at most 0.2. As to QMQA, the “one-hybrid fitness for binding NBS DNA” value is 0.297. Then WLNW, with at most 0.2; and KFKW, with at most 0.2; and AQTN, with at most 0.2. CEAT: the “one-hybrid fitness for binding NBS DNA” value is at most 0.2. Then RLGA, with at most 0.2; and QCLN, with at most 0.2. Then CEPN, with at most 0.2; and CYWR, with at most 0.2; and YYIT, with at most 0.2. Then QIQN, with at most 0.2. Take RPMV: the “one-hybrid fitness for binding NBS DNA” value was at most 0.2. Then TMSR, with at most 0.2; and MYSP, with at most 0.2. Then ADST, with at most 0.2. Turning to TPRQ, the “one-hybrid fitness for binding NBS DNA” value was at most 0.2. Then IIGT, with at most 0.2. The figure for YHGY is at most 0.2.

In the case of CTLI, the “one-hybrid fitness for binding NBS DNA” value was at most 0.2. The figure for TVPW is at most 0.2; for VTLL it is at most 0.2; for GWST it is at most 0.2.

VGCL: the “one-hybrid fitness for binding NBS DNA” value is at most 0.2. With MMTD, the “one-hybrid fitness for binding NBS DNA” value is at most 0.2.

For VIRG, the “one-hybrid fitness for binding NBS DNA” value is at most 0.2. Then PKFR, with at most 0.2; and SLKF, with at most 0.2. The figure for QLDR is 0.295. The figure for HVLR is at most 0.2. In the case of HRVH, the “one-hybrid fitness for binding NBS DNA” value was at most 0.2. Then FAFR, with 0.364.

VKRY: the “one-hybrid fitness for binding NBS DNA” value is at most 0.2.

On to GYHR, for which the “one-hybrid fitness for binding NBS DNA” value is at most 0.2. The figure for NCEG is at most 0.2; for LSHC it is at most 0.2; for WQYG it is at most 0.2. Then GVDE, with at most 0.2. Take PLVW: the “one-hybrid fitness for binding NBS DNA” value was at most 0.2. The figure for YYIF is at most 0.2.

With ASHG, the “one-hybrid fitness for binding NBS DNA” value was at most 0.2.

With SSYL, the “one-hybrid fitness for binding NBS DNA” value was at most 0.2.

On to EKAR, for which the “one-hybrid fitness for binding NBS DNA” value is at most 0.2. The figure for EMEV is at most 0.2. For QSMR, the “one-hybrid fitness for binding NBS DNA” value amounted to 0.456. Then PFQG, with at most 0.2; and RPKR, with at most 0.2; and NPQD, with at most 0.2. Consider PNWC, for which the “one-hybrid fitness for binding NBS DNA” value is at most 0.2. Take RWDG: the “one-hybrid fitness for binding NBS DNA” value was at most 0.2. Then GKVS, with at most 0.2; and LTLG, with at most 0.2; and DNPV, with at most 0.2.

As for RFNA, the “one-hybrid fitness for binding NBS DNA” value was at most 0.2. The figure for QACA is at most 0.2. Then EDWG, with at most 0.2; and PSAG, with at most 0.2. Then RRNP, with at most 0.2; and RIDC, with at most 0.2.

With ATRV, the “one-hybrid fitness for binding NBS DNA” value is at most 0.2. The figure for RCQS is 0.474; for TRTT it is 0.305; for EPYL it is at most 0.2.
